Experimental data taken from publication PMC4336329 (PLoS ONE, 2015).
Among all 310,000 compounds or so, about 2,200 (0.71%) showed an effect of 50% or more. Effects have a minus sign here. Some of the results follow.

Molecular target: human ether-à-go-go-related gene (hERG) potassium channel (human, UniProt Q12809)
Assay: primary screen, population patch clamp on CHO cells stably expressing hERG

Sequence of human ether-à-go-go-related gene (hERG) potassium channel (Q12809 whole entry, looked up): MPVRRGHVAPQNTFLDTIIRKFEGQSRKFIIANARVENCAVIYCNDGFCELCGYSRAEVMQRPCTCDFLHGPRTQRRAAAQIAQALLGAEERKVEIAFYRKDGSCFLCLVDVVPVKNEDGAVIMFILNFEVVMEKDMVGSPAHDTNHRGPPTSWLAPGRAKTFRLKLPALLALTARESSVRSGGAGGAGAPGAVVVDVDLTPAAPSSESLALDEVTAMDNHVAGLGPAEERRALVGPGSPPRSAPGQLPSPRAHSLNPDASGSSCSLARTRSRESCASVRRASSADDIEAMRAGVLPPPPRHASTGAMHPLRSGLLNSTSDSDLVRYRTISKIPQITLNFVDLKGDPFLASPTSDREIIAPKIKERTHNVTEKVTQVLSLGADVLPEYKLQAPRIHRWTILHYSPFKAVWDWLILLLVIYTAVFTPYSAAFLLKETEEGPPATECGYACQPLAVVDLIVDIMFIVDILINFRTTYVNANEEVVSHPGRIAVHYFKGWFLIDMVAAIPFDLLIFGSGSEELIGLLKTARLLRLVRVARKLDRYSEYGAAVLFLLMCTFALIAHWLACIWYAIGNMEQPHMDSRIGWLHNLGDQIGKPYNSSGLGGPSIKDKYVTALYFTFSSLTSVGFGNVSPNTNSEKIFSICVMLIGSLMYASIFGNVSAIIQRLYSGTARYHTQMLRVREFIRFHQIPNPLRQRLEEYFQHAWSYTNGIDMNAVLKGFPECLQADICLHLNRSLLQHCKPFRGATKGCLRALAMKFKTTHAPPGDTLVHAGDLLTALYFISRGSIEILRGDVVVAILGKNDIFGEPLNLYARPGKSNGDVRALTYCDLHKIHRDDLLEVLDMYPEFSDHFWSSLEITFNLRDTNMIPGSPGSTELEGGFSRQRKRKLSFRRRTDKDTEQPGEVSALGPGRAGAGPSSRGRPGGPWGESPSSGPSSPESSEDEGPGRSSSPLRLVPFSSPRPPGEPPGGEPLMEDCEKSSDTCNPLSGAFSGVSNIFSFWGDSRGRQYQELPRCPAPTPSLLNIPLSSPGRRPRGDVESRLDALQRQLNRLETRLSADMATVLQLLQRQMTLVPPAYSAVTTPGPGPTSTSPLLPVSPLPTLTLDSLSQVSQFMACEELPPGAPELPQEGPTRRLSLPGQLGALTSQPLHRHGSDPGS

Structure (SMILES) | hERG current change (%, negative = inhibition) at 1uM [%]
CC(=O)Nc1nnc(C2=COCCO2)o1 | 10.9
CC1=CC(C)(C)N(S(=O)(=O)c2ccc(C)cc2)c2cc(C)ccc21 | 11.6
Cc1c(NC(=O)OCCNC(=O)COc2c(Cl)cccc2Cl)sc(=S)n1C | -9.75
Cc1ccc(C)c(NC(=O)C(Sc2nc3ccc(C)cc3[nH]2)c2ccccc2)c1 (centres unmarked) | -1.07
CCOC(=O)c1cnc(SSc2ncc(C(=O)OCC)c(N)n2)nc1N | 16.7
COC(=O)/C=C1\SC(=Nc2ccc(OC)cc2)NC1=O | 8.79
Cc1nn(Cc2ccccc2)c(C)c1C(=O)OCC(=O)Nc1cc(S(C)(=O)=O)ccc1Cl | 2.83
Cc1cccc(/C(N)=N/OC(=O)COc2ccccc2Cl)c1 | 9.81
COc1ccc(NC(=O)CCC(=O)N2CCCC2)c([N+](=O)[O-])c1 | 4.02
Cc1ccc(-c2n[nH]c(=S)n2C)cc1Cl | 8.5
O=C(O)c1cc([N+](=O)[O-])ccc1N1CCCCC1 | 1.04
Cc1ccc(N(CCC#N)C(=O)CN2C(=O)NC(Cc3ccccc3)C2=O)cc1 (centres unmarked) | 7.96
O=C(COC(=O)Cn1[nH]c(=O)c2ccccc2c1=O)NNC(=O)c1ccc(Br)cc1 | -0.694
COC(=O)c1ccc2[nH]cc(CCO)c2c1 | 15.5
O=C(CNCc1ccc(F)cc1)Nc1ccccc1[N+](=O)[O-] | 4.53
CC1=C(C(=O)OCc2ccccc2)C(c2ccc3ccccc3c2)NC(=O)N1CCCC(=O)O (centres unmarked) | -6.09
Cc1nc(-c2nc(CC(=O)NNC(=O)c3ccc(Cl)cc3)cs2)cs1 | 9.31
COc1ccc2[nH]c3c(=O)n(Cc4ccncc4)cnc3c2c1 | 11.3
CN1CCN(CCC(=O)Nc2ccccc2Cl)CC1 | -3.43
COc1ccc(-c2nnco2)cc1OC | -4.57
COc1ccc(NC(=S)N(CCN(C)C)C(C)c2ccncc2)cc1Cl (centres unmarked) | -9.43
N#Cc1ccc(-c2cccnc2)nc1SCC(=O)Nc1sc2c(c1C#N)CCC2 | 11.9

Structure (SMILES) | hERG current change (%, negative = inhibition) at 1uM [%]
CSc1snc(SCC(N)=O)c1C#N | 15.2
COc1cc(OC)cc(C(=O)NCc2cccnc2)c1 | 7.49
C=CCn1c(=S)sc2c(=O)[nH]c(C)nc21 | 1.83
CCn1c(SCc2ccc(C(=O)Nc3nccs3)cc2)nnc1-c1ccc(N)cc1 | 9.7
N=c1n(Cc2ccccc2)c2ccccc2n1Cc1ccccc1 | -6.88
Cn1c(=O)n(C/C=C/c2ccccc2)c(=O)c2c1nc1n2CCCN1Cc1ccccc1 | 3.34
CCCCn1c(SCC(=O)N2CCc3ccccc32)nnc1-c1ccncc1 | -14.6
CCOc1ccc(-c2cc(CCCC(=O)NCCCOC)no2)cc1 | 2.26
COc1ccc(CN(C(=O)CSc2nnc(-c3ccc(F)cc3)o2)c2ccc(F)cc2)cc1 | 1.57
COc1ccc(CNC(=O)C(c2ccc(C)o2)N(Cc2cccs2)C(=O)Cc2cccs2)cc1 (centres unmarked) | 11.8
O=S(=O)(Nc1nc2ccccc2nc1Nc1ccc(N2CCOCC2)cc1)c1cc(Cl)ccc1Cl | -0.472
COC(=O)Cn1cnc2sc3c(c2c1=O)CCCC3 | 12.2
Cc1ccccc1NC(=O)CCN1CCCCCC1 | 8.93
Cc1ccc(S(=O)(=O)Nc2ccc(S(=O)(=O)Nc3ncccn3)cc2)cc1 | -0.796
COCCN(C(=O)COC(=O)CCC1CCCC1)c1c(N)n(Cc2ccccc2)c(=O)[nH]c1=O | 9
NC(=O)COC(=O)c1oc2ccccc2c1CSc1ccc(Cl)cc1 | 0.256
Cc1ccc(NC(c2ccccc2)c2nc3ccccc3[nH]c2=O)cc1 (centres unmarked) | 9.82
CCOc1cccc(CN2CCCC(C(=O)c3cc(Cl)ccc3OC)C2)c1O (centres unmarked) | -28.8
N#CN=C(N)c1ccccc1 | 4.65
COc1ccc(C(=O)C2CCCN(Cc3sc(N4CCCC4)nc3Cl)C2)c(OC)c1 (centres unmarked) | -3.42
CC(NC(=O)c1ccc(N(C)C)cc1)C(c1cccs1)N1CCN(C)CC1 (centres unmarked) | 10.9
Cc1ccc(CNC(=O)C2CCN(S(=O)(=O)c3ccc(Br)s3)CC2)cc1 | -1.03
